Measured values reported in the supplement of paper PMC6657886.

Assays:
Assay in all cases: Agar dilution on enriched GC agar; resistance determinants by microarray.
benzylpenicillin = compound: CC1(C)S[C@@H]2[C@H](NC(=O)Cc3ccccc3)C(=O)N2[C@H]1C(=O)O [benzylpenicillin]
azithromycin = compound: CC[C@H]1OC(=O)[C@H](C)[C@@H](O[C@H]2C[C@@](C)(OC)[C@@H](O)[C@H](C)O2)[C@H](C)[C@@H](O[C@@H]2O[C@H](C)C[C@H](N(C)C)[C@H]2O)[C@](C)(O)C[C@@H](C)CN(C)[C@H](C)[C@@H](O)[C@]1(C)O [azithromycin]
ceftriaxone = compound: CO/N=C(\C(=O)N[C@@H]1C(=O)N2C(C(=O)O)=C(CSc3nc(=O)c(O)nn3C)CS[C@H]12)c1csc(N)n1 [ceftriaxone]
spectinomycin = compound: CN[C@@H]1[C@H](O)[C@H](NC)[C@H]2O[C@@]3(O)C(=O)C[C@@H](C)O[C@H]3O[C@@H]2[C@H]1O [spectinomycin]
tetracycline = compound: CN(C)[C@@H]1C(O)=C(C(N)=O)C(=O)[C@@]2(O)C(O)=C3C(=O)c4c(O)cccc4[C@@](C)(O)[C@H]3C[C@@H]12 [tetracycline]

Test System	MIC (benzylpenicillin)	MIC (azithromycin)	MIC (ceftriaxone)	MIC (spectinomycin)	MIC (tetracycline)
Neisseria gonorrhoeae isolate 176 (blaTEM plasmid: no, gyrA: wild type, mtrR promoter: wild type, parC: wild type, penA: ins345Asp, ponA: wild type, porB: wild type, rpsJ: wild type, tetM plasmid: no)	≤ 0.015 µg/mL	0.03 µg/mL	≤ 0.002 µg/mL	32 µg/mL	0.5 µg/mL
Neisseria gonorrhoeae isolate 213 (blaTEM plasmid: no, gyrA: wild type, mtrR promoter: wild type, parC: wild type, penA: wild type, ponA: wild type, porB: wild type, rpsJ: wild type, tetM plasmid: no)	≤ 0.015 µg/mL	0.008 µg/mL	≤ 0.002 µg/mL	32 µg/mL	0.5 µg/mL
Neisseria gonorrhoeae isolate 439 (blaTEM plasmid: no, gyrA: Phe91, Asn 95, mtrR promoter: -35delA, parC: wild type, penA: ins345Asp, ponA: Pro421, porB: Asn120, Asp121, rpsJ: Met57, tetM plasmid: no)	1 µg/mL	0.25 µg/mL	0.06 µg/mL	16 µg/mL	2 µg/mL
Neisseria gonorrhoeae isolate 315 (blaTEM plasmid: no, gyrA: wild type, mtrR promoter: wild type, parC: wild type, penA: ins345Asp, ponA: wild type, porB: wild type, rpsJ: Met57, tetM plasmid: no)	0.06 µg/mL	0.06 µg/mL	≤ 0.002 µg/mL	16 µg/mL	1 µg/mL
Neisseria gonorrhoeae isolate 60 (blaTEM plasmid: no, gyrA: wild type, mtrR promoter: wild type, parC: Arg87, Glu91, penA: ins345Asp, ponA: wild type, porB: wild type, rpsJ: wild type, tetM plasmid: no)	0.03 µg/mL	0.06 µg/mL	≤ 0.002 µg/mL	8 µg/mL	0.06 µg/mL
Neisseria gonorrhoeae isolate 182 (blaTEM plasmid: no, gyrA: wild type, mtrR promoter: wild type, parC: wild type, penA: ins345Asp, ponA: Pro421, porB: wild type, rpsJ: wild type, tetM plasmid: no)	0.12 µg/mL	0.12 µg/mL	≤ 0.002 µg/mL	16 µg/mL	0.5 µg/mL
Neisseria gonorrhoeae isolate 383 (blaTEM plasmid: no, gyrA: wild type, mtrR promoter: wild type, parC: wild type, penA: ins345Asp, ponA: wild type, porB: wild type, rpsJ: wild type, tetM plasmid: no)	0.03 µg/mL	0.06 µg/mL	≤ 0.002 µg/mL	16 µg/mL	0.25 µg/mL
Neisseria gonorrhoeae isolate 158 (blaTEM plasmid: no, gyrA: wild type, mtrR promoter: wild type, parC: Arg87, Glu91, penA: ins345Asp, ponA: Pro421, porB: Asn120, Asp121, rpsJ: Met57, tetM plasmid: no)	2 µg/mL	0.5 µg/mL	0.015 µg/mL	32 µg/mL	4 µg/mL
Neisseria gonorrhoeae isolate 257 (blaTEM plasmid: no, gyrA: wild type, mtrR promoter: wild type, parC: wild type, penA: ins345Asp, ponA: wild type, porB: Lys120, Asn121, rpsJ: Met57, tetM plasmid: no)	0.5 µg/mL	0.25 µg/mL	0.004 µg/mL	16 µg/mL	4 µg/mL
Neisseria gonorrhoeae isolate 36 (blaTEM plasmid: yes, gyrA: wild type, mtrR promoter: wild type, parC: wild type, penA: ins345Asp, ponA: wild type, porB: Lys 120, Gly121, rpsJ: wild type, tetM plasmid: no)	≥ 32 µg/mL	0.03 µg/mL	≤ 0.002 µg/mL	16 µg/mL	0.5 µg/mL
Neisseria gonorrhoeae isolate 284 (blaTEM plasmid: no, gyrA: Thr91, Gly95, mtrR promoter: wild type, parC: wild type, penA: ins345Asp, ponA: Pro421, porB: wild type, rpsJ: Met57, tetM plasmid: no)	0.06 µg/mL	0.015 µg/mL	≤ 0.002 µg/mL	16 µg/mL	0.5 µg/mL
Neisseria gonorrhoeae isolate 338 (blaTEM plasmid: no, gyrA: Phe91, Gly95, mtrR promoter: -35delA, parC: Arg87, Glu91, penA: ins345Asp, ponA: Pro421, porB: wild type, rpsJ: Met57, tetM plasmid: no)	0.5 µg/mL	0.25 µg/mL	0.008 µg/mL	8 µg/mL	2 µg/mL
Neisseria gonorrhoeae isolate 325 (blaTEM plasmid: no, gyrA: wild type, mtrR promoter: wild type, parC: wild type, penA: wild type, ponA: wild type, porB: wild type, rpsJ: wild type, tetM plasmid: no)	≤ 0.015 µg/mL	0.06 µg/mL	≤ 0.002 µg/mL	32 µg/mL	0.5 µg/mL
Neisseria gonorrhoeae isolate 470 (blaTEM plasmid: no, gyrA: wild type, mtrR promoter: wild type, parC: wild type, penA: ins345Asp, ponA: wild type, porB: wild type, rpsJ: wild type, tetM plasmid: no)	≤ 0.015 µg/mL	0.008 µg/mL	≤ 0.002 µg/mL	32 µg/mL	0.5 µg/mL
Neisseria gonorrhoeae isolate 511 (blaTEM plasmid: yes, gyrA: Phe91, Asp95, mtrR promoter: wild type, parC: wild type, penA: ins345Asp, ponA: wild type, porB: wild type, rpsJ: Met57, tetM plasmid: yes)	≥ 32 µg/mL	0.06 µg/mL	≤ 0.002 µg/mL	8 µg/mL	16 µg/mL
Neisseria gonorrhoeae isolate 278 (blaTEM plasmid: no, gyrA: wild type, mtrR promoter: wild type, parC: wild type, penA: ins345Asp, ponA: wild type, porB: wild type, rpsJ: Met57, tetM plasmid: no)	≤ 0.015 µg/mL	1 µg/mL	≤ 0.002 µg/mL	64 µg/mL	0.06 µg/mL
Neisseria gonorrhoeae isolate 21 (blaTEM plasmid: no, gyrA: Phe91, Gly95, mtrR promoter: wild type, parC: Arg87, Glu91, penA: ins345Asp, ponA: Pro421, porB: wild type, rpsJ: Met57, tetM plasmid: no)	0.5 µg/mL	0.12 µg/mL	≤ 0.002 µg/mL	32 µg/mL	0.25 µg/mL
Neisseria gonorrhoeae isolate 109 (blaTEM plasmid: no, gyrA: Phe91, Gly95, mtrR promoter: -35delA, parC: Ser87, Gly91, penA: ins345Asp, ponA: Pro421, porB: Asn120, Asp121, rpsJ: Met57, tetM plasmid: no)	0.25 µg/mL	0.25 µg/mL	0.008 µg/mL	32 µg/mL	4 µg/mL
Neisseria gonorrhoeae isolate 186 (blaTEM plasmid: no, gyrA: wild type, mtrR promoter: wild type, parC: wild type, penA: wild type, ponA: wild type, porB: wild type, rpsJ: wild type, tetM plasmid: no)	≤ 0.015 µg/mL	0.015 µg/mL	≤ 0.002 µg/mL	32 µg/mL	0.25 µg/mL
Neisseria gonorrhoeae isolate 328 (blaTEM plasmid: no, gyrA: Thr91, Gly95, mtrR promoter: wild type, parC: wild type, penA: wild type, ponA: wild type, porB: wild type, rpsJ: wild type, tetM plasmid: no)	≤ 0.015 µg/mL	0.25 µg/mL	≤ 0.002 µg/mL	32 µg/mL	0.5 µg/mL
Neisseria gonorrhoeae isolate 79 (blaTEM plasmid: no, gyrA: wild type, mtrR promoter: -35delA, parC: wild type, penA: ins345Asp, ponA: wild type, porB: wild type, rpsJ: wild type, tetM plasmid: no)	≤ 0.015 µg/mL	0.12 µg/mL	≤ 0.002 µg/mL	32 µg/mL	0.25 µg/mL
Neisseria gonorrhoeae isolate 335 (blaTEM plasmid: no, gyrA: Phe91, Gly95, mtrR promoter: wild type, parC: Arg87, Glu91, penA: ins345Asp, ponA: Pro421, porB: wild type, rpsJ: Met57, tetM plasmid: no)	0.25 µg/mL	0.008 µg/mL	≤ 0.002 µg/mL	8 µg/mL	0.5 µg/mL
Neisseria gonorrhoeae isolate 202 (blaTEM plasmid: no, gyrA: wild type, mtrR promoter: wild type, parC: wild type, penA: wild type, ponA: wild type, porB: wild type, rpsJ: wild type, tetM plasmid: no)	≤ 0.015 µg/mL	0.008 µg/mL	≤ 0.002 µg/mL	32 µg/mL	0.06 µg/mL
Neisseria gonorrhoeae isolate 327 (blaTEM plasmid: no, gyrA: Phe91, Asn 95, mtrR promoter: -35delA, parC: Ser87, Gly91, penA: ins345Asp, ponA: Pro421, porB: Asn120, Asp121, rpsJ: Met57, tetM plasmid: no)	0.5 µg/mL	0.12 µg/mL	0.015 µg/mL	32 µg/mL	2 µg/mL
Neisseria gonorrhoeae isolate 451 (blaTEM plasmid: no, gyrA: Phe91, Gly95, mtrR promoter: -35delA, parC: Arg87, Glu91, penA: ins345Asp, ponA: wild type, porB: wild type, rpsJ: Met57, tetM plasmid: no)	0.03 µg/mL	0.06 µg/mL	≤ 0.002 µg/mL	16 µg/mL	0.25 µg/mL

MIC of clinical N. gonorrhoeae isolates (2015-2017) by agar dilution on GC agar with 1% IsoVitaleX (ranges not stated); higher = less susceptible. No active / inactive call per row; the paper counts benzylpenicillin above 1 and ceftriaxone above 0.125 mg/L as resistant (EUCAST). The method is stated for benzylpenicillin and ceftriaxone and assumed for the other drugs. '<=' is inferred from pile-ups at the end values. Isolates are numbered anew.
